Measured values from article PMC4336329 (PLoS ONE, 2015).
The campaign covered roughly 310,000 compounds. About 2,200 (0.71%) showed an effect of 50% or more. Effects have a minus sign here. Some of the results follow.

target: human ether-à-go-go-related gene (hERG) potassium channel (human, UniProt Q12809); test: primary screen, population patch clamp on CHO cells stably expressing hERG
Sequence (Q12809 whole entry, looked up): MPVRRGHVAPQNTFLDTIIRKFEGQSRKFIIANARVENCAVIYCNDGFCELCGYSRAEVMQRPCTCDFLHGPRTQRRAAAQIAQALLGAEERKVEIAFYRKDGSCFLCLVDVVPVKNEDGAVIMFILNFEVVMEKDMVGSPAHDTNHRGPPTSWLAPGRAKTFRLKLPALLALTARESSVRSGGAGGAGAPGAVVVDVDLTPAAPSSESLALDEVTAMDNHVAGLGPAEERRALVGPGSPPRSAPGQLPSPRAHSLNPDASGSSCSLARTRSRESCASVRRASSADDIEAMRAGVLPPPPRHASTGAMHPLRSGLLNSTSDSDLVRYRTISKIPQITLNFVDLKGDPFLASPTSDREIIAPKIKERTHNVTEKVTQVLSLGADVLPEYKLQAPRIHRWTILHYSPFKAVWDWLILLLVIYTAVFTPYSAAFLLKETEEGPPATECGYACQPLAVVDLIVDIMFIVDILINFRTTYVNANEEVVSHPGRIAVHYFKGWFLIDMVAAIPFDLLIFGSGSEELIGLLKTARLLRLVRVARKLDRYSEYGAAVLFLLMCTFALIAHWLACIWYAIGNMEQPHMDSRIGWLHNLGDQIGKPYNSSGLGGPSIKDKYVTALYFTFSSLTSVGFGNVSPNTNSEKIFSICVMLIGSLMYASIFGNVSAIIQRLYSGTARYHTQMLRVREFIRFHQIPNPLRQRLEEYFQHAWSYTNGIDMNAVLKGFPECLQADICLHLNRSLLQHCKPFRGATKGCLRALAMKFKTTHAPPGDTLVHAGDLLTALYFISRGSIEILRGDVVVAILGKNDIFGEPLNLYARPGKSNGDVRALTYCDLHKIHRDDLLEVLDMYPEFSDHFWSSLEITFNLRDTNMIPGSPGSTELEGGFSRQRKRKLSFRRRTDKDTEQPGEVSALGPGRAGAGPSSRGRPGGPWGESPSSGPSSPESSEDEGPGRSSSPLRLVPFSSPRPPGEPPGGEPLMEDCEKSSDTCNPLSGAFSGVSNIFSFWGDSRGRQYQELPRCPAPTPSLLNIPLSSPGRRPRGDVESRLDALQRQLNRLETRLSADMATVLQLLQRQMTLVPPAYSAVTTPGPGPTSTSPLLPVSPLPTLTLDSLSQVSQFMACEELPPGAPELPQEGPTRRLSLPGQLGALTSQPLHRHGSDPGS

Row | Structure (SMILES) | hERG current change (%, negative = inhibition) at 1uM [%]
1 | O=C(COc1ccc(/C=N/NS(=O)(=O)c2ccccc2)cc1)NCCc1ccccc1 | 15.6
2 | CCOc1ccc(CCNC(=O)CS(=O)(=O)Cc2nc(-c3cccc(OC)c3)oc2C)cc1 | 8.47
3 | CC(=O)Nc1ccc(NC(=O)c2ccccc2Sc2ccc([N+](=O)[O-])cc2Cl)cc1 | 6.31
4 | COc1cccc(C(=O)COC(=O)c2cccs2)c1 | 16.7
5 | O=C(Cn1ncc2ccccc21)N1CCC2(CC1)OCCO2 | 9.67
6 | Cc1ccc(CCNC(=O)c2nnn(-c3cccc(C)c3)c2N)cc1 | 2.44
7 | CC1(C)C2CC=C(/C=N/NC(=O)c3ccccc3Br)C1C2 (stereo not shown) | 4.48
8 | O=C(NCc1ccccc1)C1=C[C@@H](c2ccc(C(F)(F)F)cc2)C[C@@H](OCCCCO)O1 | -0.78
9 | CN=C(Nc1cccc(OC)c1)SC1CC(=O)N(c2ccc(C(=O)O)cc2)C1=O (stereo not shown) | 11
10 | CN1CCc2c(sc(NC(=O)c3ccc(C(=O)c4ccccc4)cc3)c2C(N)=O)C1.Cl | 13.2
11 | CSc1ccc(/C=C(\NC(=O)c2ccccc2)C(=O)NN)cc1 | 9.43
12 | Cc1noc(COc2ccccc2OCc2onc(C)c2Cl)c1Cl | 9.02
13 | Cc1ccccc1NC(=O)CCN1CCN(Cc2ccccc2)CC1 | -3.88
14 | CSCCC(NC(=O)c1ccccc1)C(=O)NCCCn1nc(C)cc1C (stereo not shown) | 4.94
15 | COc1ccc(C(=O)c2ccccc2Cl)cc1OC | -14.5
16 | Cc1ccc(S(=O)(=O)NCc2ccc(C(=O)N3CCN(c4ccccc4)CC3)cc2)cc1 | 3.82
17 | CCOC(=O)c1sc2nc3c(cc2c1N)COC(C)(CC)C3 (stereo not shown) | 4.24
18 | CCCN(C(=O)CSCC(=O)Nc1ccc(OC)cc1)c1c(N)n(Cc2ccccc2)c(=O)[nH]c1=O | -9.55
19 | O=C(NCCc1ccccc1)c1ccc(Cl)cc1[N+](=O)[O-] | 7.03
20 | Cc1ccc(C)c(N2CCN(S(=O)(=O)c3c(C(=O)N4CCCCC4)c(C)n(C)c3C)CC2)c1 | 11.8
21 | CCOC(=O)NNc1ccccc1 | 10.5
22 | O=C(Nc1nccs1)c1nc[nH]c1C(=O)N1CCc2ccccc2C1 | 3.14

Row | Structure (SMILES) | hERG current change (%, negative = inhibition) at 1uM [%]
23 | O=C(O)c1cccc(Nc2ncnc3sccc23)c1 | 16.5
24 | Cc1cc(=O)n(CC(=O)O)c2ccccc12 | 12.6
25 | O=C(CCN1CCN(c2ccccc2)CC1)N/N=C/c1ccccc1O | 9.66
26 | Cc1ccc(-c2nc3ccc([N+](=O)[O-])cc3[nH]2)cc1 | 2.31
27 | C=C(Br)Cn1c(CC(C)C)nc2ccccc21 | 3.82
28 | CC(C)Oc1cccc(C(=O)C2CCCN(C(=O)c3ccsc3)C2)c1 (stereo not shown) | 0.833
29 | COCCN(C(=O)COC(=O)c1ccccc1Nc1ccccc1)c1c(N)n(Cc2ccccc2)c(=O)[nH]c1=O | -19.1
30 | CC(C)Oc1ccc(C(=O)N(Cc2ccco2)C2CCS(=O)(=O)C2)cc1 (stereo not shown) | 6.13
31 | CCn1c(/C=C/c2ccc(O)cc2)nc2ccccc2c1=O | 15.8
32 | Cc1ccccc1N1CCN(C2CCCN(C(=O)CCC(F)(F)F)C2)CC1 (stereo not shown) | 2.12
33 | O=C(COC(=O)CCCC1=NS(=O)(=O)c2ccccc2N1)Nc1ccc(Br)cc1 | 7.43
34 | CCOC(=O)c1ccc(Oc2nc(NC)nc(Nc3ccccc3)n2)cc1 | -19
35 | COc1ccc(CNC(=O)CCC(=O)Nc2nnc(C(C)C)s2)cc1 | 4.59
36 | COc1ccc(N(C)C(=O)Cc2c(C(=O)O)n(C)c3ccccc23)cc1 | 21.5
37 | O=C(c1ccco1)N1CCN=C1SCc1ccccc1Cl | -6.94
38 | O=C(NC(=S)Nc1ccc(Cc2ccncc2)cc1)c1ccccc1Cl | -0.467
39 | COc1cc(/C=C/C(=O)OCC(=O)Nc2ccc(C)cc2[N+](=O)[O-])ccc1O | -3.44
40 | Cc1ccc(/C=N/NC(=O)COc2ccc(Cl)c(C)c2)o1 | 29.9
41 | Cc1ccc(NC(=O)CCc2c(C)nn(-c3ccc(N4CCOCC4)nn3)c2C)cc1F | 6.28
42 | CCN(CC)C(=O)Cn1cc(C=C2C(=O)N(C)C(=O)N(C)C2=O)c2ccccc21 | 14.9
43 | Cc1ccc(NC(=O)CCc2ccc(C)o2)c(C)c1 | 9.54
